The list shows a part of the results. Sequences were assembled here from the parent chain. Inactive controls read about 0.05.
B1: TEV protease; numbered along this chain (parent)
chain: MGESLFKGPRDYNPISSSICHLTNESDGHTTSLYGIGFGPFIITNKHLFRRNNGTLVVQSLHGVFKVKDTTTLQQHLVDGRDMIIIRMPKDFPPFPQKLKFREPQREERICLVTTNFQTKSMSSMVSDTSCTFPSGDGIFWKHWIQTKDGQCGSPLVSTRDGFIVGIHSASNFTNTNNYFTSVPKNFMELLTNQEAQQWVSGWRLNADSVLWGGHKVFMVKPEEPFQPVKEATQL

Variants of: B1
Test: raw area under fraction-flipped curve 0-4 h after induction (AUC4h, not background-subtracted), DNA-recorder readout of cleavage of the substrate (dimensionless); higher = more cleavage of the substrate by the protease variant
Conditions: temperature: 34 °C; time window: 0-4 h after rhamnose induction
Procedure: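 In vivo DNA recorder in E. coli TOP10(DE3) ΔrhaA at 34 °C. Each TEVp single-site mutant (parent TEVp 0) is paired with a single-site variant of the 7-mer TEVs (canonical ENLYFQ|S). The substrate sits between flexible linkers in a Bxb1-sfGFP-TEVs-SsrA fusion, so cleavage stabilises Bxb1 and speeds flipping of a recombination array, read by NGS. The value is the raw area under the fraction-flipped curve over 0-4 h after rhamnose induction (AUC4h), with ≥20 reads per time point. It is not background-subtracted; inactive controls average about 0.047.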
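Note: Bxb1 expression induced with 0.2% (w/v) L-rhamnose at OD600 near 0.5, cultures sampled hourly, flipped fraction per protease–substrate barcode pair counted by paired-end Illumina sequencing.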

MGESLFKGPRDYNPISSSICHLTNESDGHTTSLYGIGFGPFIITNKHLFRRNNGTLVVQSLHGVFKVKDTTTLQQHLVDGRDMIIIRMPKDFPPFPQKLKFREPQREERICLVTTNFQTKSMSSMVSQTSCTFPSGDGIFWKHWIQTKDGQCGSPLVSTRDGFIVGIHSASNFTNTNNYFTSVPKNFMELLTNQEAQQWVSGWRLNADSVLWGGHKVFMVKPEEPFQPVKEATQL [D128Q]
area with substrate ENLYFQA: 0.117 | area with substrate ENLYFQC: 0.131 | area with substrate ENLYFQD: 0.0794 | area with substrate ENLYFQE: 0.0672 | area with substrate ENLYFQG: 0.131 | area with substrate ENLYFQI: 0.0625 | area with substrate ENLYFQK: 0.0616 | area with substrate ENLYFQL: 0.0684 | area with substrate ENLYFQN: 0.0933 | area with substrate ENLYFQP: 0.0611 | area with substrate ENLYFQR: 0.0576 | area with substrate ENLYFQS: 0.131 | area with substrate ENLYFQT: 0.0727 | area with substrate ENLYFQV: 0.0683 | area with substrate ENLYFQW: 0.0842

MGESLFKGPRDYNPISSSICHLTNESDGHTTSLYGIGFGPFIITNKHLFRRNNGTLVVQSLHGVFKVKDTTTLQQHLVDGRDMIIIRMPKDFPPFPQKLKFREHQREERICLVTTNFQTKSMSSMVSDTSCTFPSGDGIFWKHWIQTKDGQCGSPLVSTRDGFIVGIHSASNFTNTNNYFTSVPKNFMELLTNQEAQQWVSGWRLNADSVLWGGHKVFMVKPEEPFQPVKEATQL [P104H]
area with substrate ENLYFQA: 0.0405 | area with substrate ENLYFQC: 0.0444 | area with substrate ENLYFQH: 0.0776 | area with substrate ENLYFQI: 0.0504 | area with substrate ENLYFQK: 0.053 | area with substrate ENLYFQP: 0.0547 | area with substrate ENLYFQS: 0.0534 | area with substrate ENLYFQT: 0.0394 | area with substrate ENLYFQW: 0.0524

MGESLFKGPRDYNPISSSICHLTNESDGHTTSLYGIGFGPFIITNKHLFRRNNGTLVVQSLHGVAKVKDTTTLQQHLVDGRDMIIIRMPKDFPPFPQKLKFREPQREERICLVTTNFQTKSMSSMVSDTSCTFPSGDGIFWKHWIQTKDGQCGSPLVSTRDGFIVGIHSASNFTNTNNYFTSVPKNFMELLTNQEAQQWVSGWRLNADSVLWGGHKVFMVKPEEPFQPVKEATQL [F65A]
area with substrate ENLYFQA: 0.111 | area with substrate ENLYFQC: 0.113 | area with substrate ENLYFQD: 0.0581 | area with substrate ENLYFQG: 0.0938 | area with substrate ENLYFQK: 0.0571 | area with substrate ENLYFQM: 0.0915 | area with substrate ENLYFQN: 0.0642 | area with substrate ENLYFQP: 0.0467 | area with substrate ENLYFQR: 0.0587 | area with substrate ENLYFQS: 0.0977 | area with substrate ENLYFQT: 0.0339 | area with substrate ENLYFQV: 0.0518 | area with substrate ENLYFQW: 0.0637 | area with substrate ENLYFQY: 0.0817

MGESLFKGPRDYNPISSSICHLTNESDGHTTSLYGIGFGPFIITNKHLFRRNNGTLVVQSLHGVFKVKDTTTLQQHLVDGRDMIIIRMPKDFPPFPQKLKFREPQREERICLVTTNFQTKSMSSMVSDTSCTFPSGDGIFWKHWIQTKDGQCGSPLVSTRDGFIVGIHSASNFTNTNNYFTSVPKNFMELLTNQEAQQWVSGWRLNADSVLWGGHKVFMVKPEQPFQPVKEATQL [E224Q]
area with substrate ENLYFQA: 0.1 | area with substrate ENLYFQC: 0.13 | area with substrate ENLYFQD: 0.0672 | area with substrate ENLYFQF: 0.0667 | area with substrate ENLYFQG: 0.0844 | area with substrate ENLYFQI: 0.0722 | area with substrate ENLYFQK: 0.0706 | area with substrate ENLYFQL: 0.0723 | area with substrate ENLYFQM: 0.0836 | area with substrate ENLYFQN: 0.0756 | area with substrate ENLYFQR: 0.0555 | area with substrate ENLYFQS: 0.102 | area with substrate ENLYFQT: 0.0726 | area with substrate ENLYFQV: 0.0595 | area with substrate ENLYFQW: 0.081 | area with substrate ENLYFQY: 0.081

MGESLFKGPRDYNPISSSICHLTNESDGHTTSLYGIGFGPFIITNKHLFRRNNGTLVVQSLHGVFKVKDTTTLQQHLVDGRDMIIIRMPKDFPPFPQKLKFREPQREERICLVTTNFQTKSMSSMVSDTSCTFPSGDGIFWKHWIQTKDGQCGSPLVSTRDGFIVGIHSASNFTNTNNYFTSVPKNFMELLTNQEAQQWVSGWRLNADSVLWGGHKVFMVKPEIPFQPVKEATQL [E224I]
area with substrate ENLYFQA: 0.0735 | area with substrate ENLYFQD: 0.0694 | area with substrate ENLYFQG: 0.0852 | area with substrate ENLYFQH: 0.0841 | area with substrate ENLYFQI: 0.0596 | area with substrate ENLYFQK: 0.111 | area with substrate ENLYFQL: 0.073 | area with substrate ENLYFQN: 0.0817 | area with substrate ENLYFQP: 0.0573 | area with substrate ENLYFQR: 0.0777 | area with substrate ENLYFQS: 0.0959 | area with substrate ENLYFQV: 0.0703

MGESLFKGPRDYNPISSSICHLTNESDGHTTSLYGIGFGPFIITNKHLFRRNNGTLVVQSLHGVFKVKDTTTLQQHLVDGRDMIIIRMPKDFPPFPQKLKFREPQREERICLVTTNFQTDSMSSMVSDTSCTFPSGDGIFWKHWIQTKDGQCGSPLVSTRDGFIVGIHSASNFTNTNNYFTSVPKNFMELLTNQEAQQWVSGWRLNADSVLWGGHKVFMVKPEEPFQPVKEATQL [K120D]
area with substrate ENLYFQA: 0.0875 | area with substrate ENLYFQG: 0.0915 | area with substrate ENLYFQI: 0.0609 | area with substrate ENLYFQK: 0.0528 | area with substrate ENLYFQL: 0.0567 | area with substrate ENLYFQM: 0.0745 | area with substrate ENLYFQN: 0.0752 | area with substrate ENLYFQQ: 0.078 | area with substrate ENLYFQR: 0.0603 | area with substrate ENLYFQS: 0.0922 | area with substrate ENLYFQT: 0.0668 | area with substrate ENLYFQY: 0.0728

MGESLFKGPRDYNPISSSICHLTNESDGHTTSLYGIGFGPFIITNKHLFRRNNGTLVVQSLHGVFKVKDTTTLQQHLVDGRDMIIIRMPKDFPPFPQKLKFREPQREERICLVTTNFQTKSMSSMTSDTSCTFPSGDGIFWKHWIQTKDGQCGSPLVSTRDGFIVGIHSASNFTNTNNYFTSVPKNFMELLTNQEAQQWVSGWRLNADSVLWGGHKVFMVKPEEPFQPVKEATQL [V126T]
area with substrate ENLYFQA: 0.0914 | area with substrate ENLYFQC: 0.124 | area with substrate ENLYFQD: 0.0788 | area with substrate ENLYFQF: 0.0771 | area with substrate ENLYFQG: 0.0973 | area with substrate ENLYFQH: 0.0913 | area with substrate ENLYFQI: 0.0586 | area with substrate ENLYFQK: 0.0562 | area with substrate ENLYFQL: 0.0584 | area with substrate ENLYFQN: 0.0888 | area with substrate ENLYFQR: 0.0893 | area with substrate ENLYFQS: 0.106 | area with substrate ENLYFQT: 0.0654 | area with substrate ENLYFQY: 0.0814

MGESLFKGPRDYNPISSSICHLTNESDGHTTSLYGIGFGPFIITNKHLFRRNNGTLVVQSLHGVFKVKDTTTLQQHLVDGRDMIIIRMPKDFPPFPQKLKFREPQREERVCLVTTNFQTKSMSSMVSDTSCTFPSGDGIFWKHWIQTKDGQCGSPLVSTRDGFIVGIHSASNFTNTNNYFTSVPKNFMELLTNQEAQQWVSGWRLNADSVLWGGHKVFMVKPEEPFQPVKEATQL [I110V]
area with substrate ENLYFQA: 0.0381 | area with substrate ENLYFQC: 0.123 | area with substrate ENLYFQD: 0.0675 | area with substrate ENLYFQF: 0.0782 | area with substrate ENLYFQG: 0.0859 | area with substrate ENLYFQI: 0.0655 | area with substrate ENLYFQK: 0.0667 | area with substrate ENLYFQL: 0.0675 | area with substrate ENLYFQM: 0.0939 | area with substrate ENLYFQN: 0.0888 | area with substrate ENLYFQP: 0.0639 | area with substrate ENLYFQQ: 0.0752 | area with substrate ENLYFQR: 0.0644 | area with substrate ENLYFQS: 0.102 | area with substrate ENLYFQT: 0.0589 | area with substrate ENLYFQV: 0.0637 | area with substrate ENLYFQW: 0.065 | area with substrate ENLYFQY: 0.0833

MGESLFKGPRDYNPISSSICHLTNESDGHTTSLYGIGFGPFIITNKHLFRRNNGTLVVQSLHGVFKVKDTTTLQQHLVDGRDMIIIRMPKDFPPFPQKLKFREPQREERICLVTTNFQTKSMSSMVSDTSCTFPSGDGIFWKHWIQTKDGQCGSPLVSTRDGFIVGIHSASNFTNTNNYFTSVPKNFMELLTNQEAQQWVSGWRLNADSVLWGGHKVFMVKPEEPFQPVKWATQL [E231W]
area with substrate ENLYFQA: 0.0738 | area with substrate ENLYFQC: 0.073 | area with substrate ENLYFQD: 0.0489 | area with substrate ENLYFQF: 0.0612 | area with substrate ENLYFQG: 0.105 | area with substrate ENLYFQH: 0.0689 | area with substrate ENLYFQI: 0.0616 | area with substrate ENLYFQK: 0.0645 | area with substrate ENLYFQL: 0.0573 | area with substrate ENLYFQM: 0.0745 | area with substrate ENLYFQN: 0.0792 | area with substrate ENLYFQR: 0.054 | area with substrate ENLYFQS: 0.0878 | area with substrate ENLYFQT: 0.0663 | area with substrate ENLYFQW: 0.0667 | area with substrate ENLYFQY: 0.0617

From the supplement of paper PMC12217912
